According to the supplement of paper PMC6089552:
Among all 3,200 compounds or so, about 300 (9.4%) showed activity. The list shows a part of the results, in another mix than the full data.

Tested on: A673/TR/shEF
Experiment: cell viability (LOESS-normalised, relative to median of negative controls) (log2 ratio); higher = more viable cells (less compound effect), active = hit call of the paper (over 3 MAD below the median)
Conditions: treatment time: 72 h
How it was run: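 A673/TR/shEF Ewing sarcoma cells (1,500 per well, 384-well plates) were grown with or without doxycycline to induce EWS-FLI1 shRNA knockdown, starting 24 h before compounds. Library compounds at two or more concentrations, with DMSO controls, were added for three days. Cell viability was read by CellTiter-Glo luminescence on an Envision reader, then LOESS-corrected per plate, divided by the median of negative controls and log2-transformed. Hits were wells at least three median absolute deviations from the median of all screened wells.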

[1] = 0.25 µM, library screen: screen1, EWS-FLI1 expression: high (no doxycycline)
[2] = 0.25 µM, library screen: screen1, EWS-FLI1 expression: low (doxycycline-induced shRNA knockdown)
[3] = 2.5 µM, library screen: screen1, EWS-FLI1 expression: high (no doxycycline)
[4] = 2.5 µM, library screen: screen1, EWS-FLI1 expression: low (doxycycline-induced shRNA knockdown)
[5] = 0.25 µM, library screen: screen2, EWS-FLI1 expression: high (no doxycycline)
[6] = 0.25 µM, library screen: screen2, EWS-FLI1 expression: low (doxycycline-induced shRNA knockdown)
[7] = 2.5 µM, library screen: screen2, EWS-FLI1 expression: high (no doxycycline)
[8] = 2.5 µM, library screen: screen2, EWS-FLI1 expression: low (doxycycline-induced shRNA knockdown)
[9] = 0.103 µM, library screen: screen3, EWS-FLI1 expression: high (no doxycycline)
[10] = 0.103 µM, library screen: screen3, EWS-FLI1 expression: low (doxycycline-induced shRNA knockdown)
[11] = 0.308 µM, library screen: screen3, EWS-FLI1 expression: high (no doxycycline)
[12] = 0.308 µM, library screen: screen3, EWS-FLI1 expression: low (doxycycline-induced shRNA knockdown)
[13] = 0.926 µM, library screen: screen3, EWS-FLI1 expression: high (no doxycycline)
[14] = 0.926 µM, library screen: screen3, EWS-FLI1 expression: low (doxycycline-induced shRNA knockdown)
[15] = 2.8 µM, library screen: screen3, EWS-FLI1 expression: high (no doxycycline)
[16] = 2.8 µM, library screen: screen3, EWS-FLI1 expression: low (doxycycline-induced shRNA knockdown)
[17] = 8.3 µM, library screen: screen3, EWS-FLI1 expression: high (no doxycycline)
[18] = 8.3 µM, library screen: screen3, EWS-FLI1 expression: low (doxycycline-induced shRNA knockdown)
[19] = 25 µM, library screen: screen3, EWS-FLI1 expression: high (no doxycycline)
[20] = 25 µM, library screen: screen3, EWS-FLI1 expression: low (doxycycline-induced shRNA knockdown)
[21] = 0.025 µM, library screen: screen1, EWS-FLI1 expression: high (no doxycycline)
[22] = 0.025 µM, library screen: screen1, EWS-FLI1 expression: low (doxycycline-induced shRNA knockdown)
[23] = 25 µM, library screen: screen1, EWS-FLI1 expression: high (no doxycycline)
[24] = 25 µM, library screen: screen1, EWS-FLI1 expression: low (doxycycline-induced shRNA knockdown)

Measured: cell viability (log2)

CCCCc1nc(Cl)c(CO)n1Cc1ccc(-c2ccccc2-c2nn[nH]n2)cc1
inactive: [1] 0.109 | [2] -5.6e-05 | [3] 0.046 | [4] 0.108

NCCCCNS(=O)(=O)c1cccc2c(Cl)cccc12
active: [5] -0.151

COc1cc(CN2CCN(Cc3cccnc3)CC2)cc(OC)c1OC
inactive: [1] 0.0843 | [2] 0.0394 | [3] 0.126 | [4] 0.144

C[C@@H]1O[C@@H](O[C@H]2[C@H](Oc3cc(O)c4c(=O)cc(-c5ccc(O)cc5)oc4c3)O[C@H](CO)[C@@H](O)[C@@H]2O)[C@H](O)[C@H](O)[C@H]1O
inactive: [1] 0.0335 | [2] 0.0365 | [3] 0.122 | [4] 0.0962

COc1cc(CN2CCN(Cc3ccco3)CC2)cc(OC)c1
inactive: [1] -0.0146 | [2] 0.0935 | [3] 0.0118 | [4] 0.0977

Nc1nc2ccc(Cl)cc2c2nc(-c3ccco3)nn12
inactive: [5] 0.0906 | [6] 0.0622 | [7] 0.0284 | [8] 0.0389

OC1C(O)C(O)C(O)C(O)C1O (configuration not stated)
inactive: [1] 0.0555 | [2] 0.00677 | [3] 0.089 | [4] 0.0209

CCC(C)N(C)C(=O)c1cc2ccccc2c(-c2ccccc2Cl)n1 (configuration not stated)
inactive: [5] 0.179 | [6] 0.0729 | [7] 0.0258 | [8] 0.194

Cc1c(N(C)CS(=O)(=O)O)c(=O)n(-c2ccccc2)n1C
inactive: [1] 0.134 | [2] 0.0871 | [3] 0.0768 | [4] 0.151

C[C@@H]1CCN(C(=O)CC#N)C[C@@H]1N(C)c1ncnc2[nH]ccc12
inactive: [9] -0.0507 | [10] 0.00355 | [11] -0.0226 | [12] 0.0313 | [13] 0.00705 | [14] 0.0526 | [15] 0.0331 | [16] 0.0539 | [17] 0.0415 | [18] 0.0389 | [19] 0.0334 | [20] -0.0228

CC(NCCC(c1ccccc1)c1ccccc1)c1ccccc1 (configuration not stated)
inactive: [1] 0.0634 | [2] 0.0619 | [3] 0.136 | [4] 0.117

NCCCCC(N)C(=O)NC(Cc1c[nH]c2ccccc12)C(=O)NC(CCCCN)C(=O)O (configuration not stated)
inactive: [1] 0.0147 | [2] 0.0512 | [3] 0.141 | [4] 0.0544

CN1CCN(CCCN2c3ccccc3Sc3ccc(C(F)(F)F)cc32)CC1
inactive: [1] 0.0503 | [2] 0.0773 | [5] 0.145 | [6] 0.07 | [3] 0.188 | [4] 0.156 | [7] 0.154 | [8] 0.0393

COC(=O)Nc1nc2ccc(C(=O)c3cccs3)cc2[nH]1
active: [1] -0.83 | [2] -0.22 | [5] -1.12 | [6] -0.105 | [3] -3.46 | [4] -1.25 | [7] -2.04 | [8] -0.699

Nc1ncc2[nH]cnc2n1
active: [3] -0.0954

COc1ccc(OC)c(C(O)CNC(=O)CN)c1 (configuration not stated)
inactive: [1] 0.129 | [2] 0.155 | [3] 0.0539 | [4] 0.125

C=CC(=O)Nc1cc2c(Nc3ccc(F)c(Cl)c3)ncnc2cc1OCCCN1CCOCC1
active: [17] -0.188 | [19] -0.199 | [20] -0.281

COC(=O)C[C@H]1C(C)(C)C2(O)OC34CC2C(=O)[C@]1(C)C3CC[C@]1(C)C4=CC(=O)O[C@H]1c1ccoc1 (some centres not stated)
inactive: [1] -0.0307 | [2] -0.0369 | [3] 0.093 | [4] 0.0811

CNC[C@H](O)c1ccc(O)c(O)c1
inactive: [9] 0.00528 | [10] 0.0495 | [1] 0.106 | [2] 0.0509 | [5] 0.169 | [6] 0.0474 | [11] 0.079 | [12] 0.091 | [13] 0.0631 | [14] 0.0893 | [3] 0.183 | [4] 0.209 | [7] 0.122 | [8] 0.099 | [15] 0.0488 | [16] 0.0524 | [17] -0.00361 | [18] 0.0638 | [19] 0.098 | [20] 0.00995

COc1ccc(OC)c(C2NC(=O)NC(C)=C2C(=O)Nc2ccccc2Cl)c1 (configuration not stated)
inactive: [1] 0.0793 | [2] 0.107 | [3] 0.0921 | [4] 0.116

OC(CNCC(O)C1CCc2cc(F)ccc2O1)C1CCc2cc(F)ccc2O1 (configuration not stated)
inactive: [9] 0.0679 | [10] 0.105 | [11] 0.0226 | [12] 0.0787 | [13] 0.018 | [14] 0.0333 | [15] 0.0512 | [16] 0.073 | [17] 0.0254 | [18] 0.116 | [19] -0.073 | [20] -0.0764

Cc1ccccc1N1OC2C(=O)N(Cc3ccccc3)C(=O)C2C1c1ccc(F)cc1 (configuration not stated)
inactive: [1] 0.112 | [2] -0.00916 | [3] 0.0853 | [4] -0.0466

O=c1[nH]c2cc([N+](=O)[O-])c([N+](=O)[O-])cc2[nH]c1=O
inactive: [5] 0.13 | [6] 0.0919 | [7] 0.164 | [8] 0.101

O=C(CCc1ccc(O)cc1)c1c(O)cc(O)cc1O
inactive: [1] 0.0445 | [2] 0.00928 | [5] 0.211 | [6] 0.0442 | [3] 0.117 | [4] 0.0976 | [7] 0.201 | [8] 0.0347

COC(=O)/C=C/c1cc(O)ccc1O
inactive: [21] 0.177 | [22] 0.0349 | [1] 0.18 | [2] 0.0134 | [5] 0.108 | [6] 0.184 | [4] -0.137 | [7] 0.0473 | [8] 0.11
active: [3] -0.379 | [23] -0.809 | [24] -0.511

C[N+](C)(C)CCO
inactive: [1] 0.0789 | [2] 0.0426 | [5] 0.169 | [6] 0.123 | [3] 0.0401 | [4] 0.0832 | [7] 0.0772 | [8] 0.05

CN(C)CCOC(C)(c1ccccc1)c1ccccn1 (configuration not stated)
inactive: [1] 0.175 | [2] 0.137 | [5] 0.163 | [6] 0.0565 | [3] 0.19 | [4] 0.165 | [7] 0.0665 | [8] 0.0975

COc1cccc(-c2cc(=O)c3ccccc3o2)c1N
active: [3] -0.37
inactive: [21] 0.268 | [22] -0.0228 | [2] -0.0268 | [5] 0.18 | [6] 0.11 | [4] 0.0789 | [7] 0.195 | [8] 0.139 | [23] -0.0514 | [24] 0.0727
0.278: [1]

C[C@@H](O)[C@H]1C(=O)N2C(C(=O)O)=C(S[C@@H]3CN[C@H](CNS(N)(=O)=O)C3)[C@H](C)[C@H]12
inactive: [9] 0.033 | [10] 0.0995 | [11] -0.0322 | [12] 0.0266 | [13] -0.0529 | [14] 0.0199 | [15] 0.0539 | [16] 0.00336 | [17] -0.00784 | [18] 0.05 | [19] 0.0267 | [20] 0.0394

CC1=C[C@@H]2[C@@H](CC1)[C@](C)(O)CC[C@H]2C(C)C
inactive: [1] 0.0888 | [2] 0.0211 | [3] 0.101 | [4] 0.102

CC(C)(C#N)c1cc(Cn2cncn2)cc(C(C)(C)C#N)c1
inactive: [9] 0.0557 | [10] 0.0542 | [11] 0.133 | [12] 0.115 | [13] 0.078 | [14] 0.0366 | [15] 0.103 | [16] 0.0298 | [17] 0.0453 | [18] 0.0596 | [19] 0.173 | [20] 0.0922

C=CC(C1=CC(=O)C(OC)=CC1=O)c1ccc(OC)cc1 (configuration not stated)
inactive: [1] 0.133 | [2] 0.135 | [3] 0.157 | [4] 0.265

COc1cc2nccc(Oc3ccc(NC(=O)Nc4cc(C)on4)c(Cl)c3)c2cc1OC
inactive: [9] 0.0507 | [10] 0.0378 | [11] 0.0179 | [12] 0.0528 | [13] 0.0271 | [14] 0.088 | [15] 0.141 | [16] 0.131 | [17] 0.156 | [18] 0.204 | [19] -0.04 | [20] 0.155

COc1cc(C(=O)N2CCOCC2)c([N+](=O)[O-])cc1OC
inactive: [1] 0.0993 | [2] 0.0316 | [3] 0.0928 | [4] -0.0159

Oc1cc(O)c2c(c1)O[C@H](c1cc(O)c(O)c(O)c1)[C@H](O)C2
inactive: [1] 0.0176 | [2] 0.0257 | [3] 0.0607 | [4] 0.0489

O=C(O)c1cc(=O)cc(C(=O)O)[nH]1
inactive: [5] 0.183 | [6] 0.138 | [7] 0.0402 | [8] 0.037

CN1CCc2c(cc(O)c(O)c2Cl)C(c2cccc(Cl)c2)C1 (configuration not stated)
inactive: [5] 0.0833 | [6] 0.137 | [7] 0.229 | [8] 0.0573

COCc1cc(C)nc(SCC(=O)NC(C)(C)C)c1C#N
inactive: [1] 0.122 | [2] 0.0633 | [3] 0.0645 | [4] -0.0386
